Hit rate of the full screen: of about 48,000 compounds, about 450 (0.94%) were called active. About 19% were inconclusive and are not listed. The call rests on the fitted dose curve; in most records, active means well fitted inhibition curve with a large enough effect; inconclusive means small, poorly fitted or top-dose-only effect; inactive means no such curve, though single readings can be large or run the other way. Some of the results follow.
Test: Primary qHTS for Identification of Small Molecule Inhibitors of Huntingtin Promoter Activity; further: nearly all actives have a fitted effect of over 50% in size
Settings: HEK293 HTT promoter firefly luciferase reporter (activity 0% = vehicle and -100% = no light), 24 h; series mostly up to 57.5 µM; activity change, negative = inhibition: at the top concentration
Outline: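 Firefly luciferase readout (Dual-Glo, 10 min RT) after 24 h, 37 °C compound exposure (final up to 57.5 uM) of HEK293 reporter cells cultured 24 h beforehand; PTC124 at 50 uM final as control inhibitor; activity scaled vehicle 0%, zero RLU -100%.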
Potency means the concentration at half of the fitted maximal effect.

| Compound | activity change, negative = inhibition | Potency |
| --- | --- | --- |
| CCN1CCN(C(=O)c2ccc3c(c2)N(Cc2ccccc2F)C(=O)c2ccccc2S3(=O)=O)CC1 | inactive: -10.3% |  |
| COc1cccc(N(C)C(=S)Oc2ccc3c(c2)CCCC3)n1 | inactive |  |
| COc1cc(NS(=O)(=O)c2ccc(NC(=O)c3ccc(C(C)=O)cc3)cc2)nc(OC)n1 | inactive: -2.87% |  |
| CCOC(=O)c1cccc(NC(=O)N2CC(CC)Oc3ccccc32)c1 (stereo not given) | inactive: -7.14% |  |
| Cc1cccc(-n2ncc(C(=O)NCc3ccco3)c2C2CCN(C(=O)OC(C)(C)C)CC2)c1 | inactive: -19.5% |  |
| CCc1nn(CC(=O)NCCN(CC)CC)c(=O)c2cc3occc3n12 | inactive: -5.83% |  |
| O=C(CSc1ncc2c(n1)-c1ccccc1N(Cc1ccc(F)cc1)S2(=O)=O)NCc1ccccc1 | inactive: -15.5% |  |
| Cc1cccc(CNC(=O)CCCN2C(=O)COc3ccc(C)cc32)c1 | inactive: -11.7% |  |
| CCn1c(=O)c2cc(C(=O)N(C)c3cc(Cl)c(OC)cc3OC)sc2c2ccccc21 | inactive: -3.09% |  |
| Cc1cn2c(=O)cc(COC(=O)c3cccc(NC(=O)COc4ccc(Cl)cc4)c3)nc2s1 | inactive: -16.4% |  |
| COC(=O)c1c(NC(=O)COc2ccccc2Cl)sc2c1CCC(C(C)(C)C)C2 (stereo not given) | inactive: 0.708% |  |
| Cc1ccc(CCNC(=O)c2cc3sccc3n2Cc2ccc(F)cc2)cc1 | inactive: -22.2% |  |
| COC(=O)c1ccc(Cl)cc1NC(=O)N1CCC(CN2CCCC2)CC1 | inactive: -17% |  |
| CC(C)(O)CCc1ccc(OCc2cc(-c3cccc(OC(F)F)c3)c3ncccc3c2)cc1 | inactive: 32.4% |  |
| Cc1ccc(C(=O)c2cn(Cc3ccccc3F)c3cc4c(cc3c2=O)OCO4)cc1 | inactive: 8.33% |  |
| N#C/C(=C\c1ccc(Br)cc1)c1nc(-c2cc3cc(Br)ccc3oc2=O)cs1 | inactive: -5.36% |  |
| COc1cc(/C=C(\C#N)c2nc3ccc(C)cc3[nH]2)ccc1OC(C)C | inactive: 11.3% |  |
| CC1(C)O[C@@H]2C[C@H]3[C@@H]4CCC5=CC(=O)C=C[C@]5(C)[C@@H]4[C@@H](O)C[C@]3(C)[C@]2(C(=O)CO)O1 | inactive: -4.12% |  |
| CCc1ccc(S(=O)(=O)c2c[nH]c3cc(OC)c(OC)cc3c2=O)cc1 | inactive: -21.3% |  |
| COc1ccc2cc3cc(C(=O)NCCc4ccccc4)sc3nc2c1Cl | inactive: -13.2% |  |
| Cc1cnc(-c2cnc(NCCNc3ccc(C#N)cn3)nc2-c2ccc(Cl)cc2Cl)[nH]1 | inactive: -22.4% |  |
| Cc1ccccc1NC(=O)Cn1c(=O)n(-c2ccc(CC(=O)NCC3CCCO3)cc2)c(=O)c2ccccc21 (stereo not given) | inactive: -1.93% |  |
| COc1cccc(NC(=O)C(=O)NCC(c2ccc3c(c2)OCO3)N2CCOCC2)c1 (stereo not given) | inactive: 92.9% |  |
| O=C(Cn1c(=O)n(-c2ccc(Cl)cc2)c(=O)c2sc3ccccc3c21)NC1CCCCC1 | inactive: -13.8% |  |

| Compound | activity change, negative = inhibition | Potency |
| --- | --- | --- |
| COc1ccc(-c2cc(C(F)(F)F)nc(NCc3ccccc3)n2)cc1 | inactive: -27.1% |  |
| COc1cc(OC)c(NC(=O)CCn2cccn2)cc1Cl | inactive: 10% |  |
| CN(Cc1ccccc1)C(C(=O)NC1CCCCC1)c1ccc(Cl)cc1 (stereo not given) | inactive: -3.88% |  |
| CC(C=CC=C(C)C=CC1=C(C)CCCC1(C)C)=CC=CC=C(C)C=CC=C(C)C=CC1=C(C)CCCC1(C)C | inactive: 6.84% |  |
| CCN(CCCNC(=O)CSc1cc(=O)n(C)c2cc(Cl)ccc12)c1cccc(C)c1 | inactive: -30.8% |  |
| COc1cc(-c2noc(-c3ccc(N4CCOCC4)c([N+](=O)[O-])c3)n2)cc(OC)c1OC | inactive: -12.2% |  |
| COc1cccc(-c2nc(CS(=O)(=O)CC(=O)Nc3cc(F)ccc3F)c(C)o2)c1 | inactive: -28.7% |  |
| Cc1ccc(NC(=O)CSc2nc3ccccc3c3nc(CCn4cncc4C)nn23)c(C)c1 | inactive: 0% |  |
| Cc1ccc(OCC(=O)N(Cc2ccco2)Cc2ccco2)cc1 | inactive: -10.3% |  |
| CCS(=O)(=O)c1nc2ccccc2n1CC(=O)Nc1ccccc1C(=O)OC | inactive: 35.6% [at 11.5 µM] |  |
| CCc1ccc(C(=O)c2c(N)c(-c3nc(-c4ccc5c(c4)OCO5)cs3)c3ccccn23)cc1 | inactive: -2.07% |  |
| Oc1c(C(c2ccc(Br)cc2)N2CCOCC2)sc2nc(-c3ccco3)nn12 (stereo not given) | inactive: -16.2% |  |
| COc1ccc(CCNC(=O)CCn2c(=O)c3ccccc3n(Cc3c(C)cc(C)cc3C)c2=O)cc1OC | inactive: -9.58% |  |
| COc1ccc2nc3sc(C(=O)N4CCN(c5ccccc5)CC4)cc3cc2c1 | inactive: 5.34% |  |
| CC(C)CCNC(=O)CN1C(=O)c2cccnc2Oc2ccccc21 | inactive: 3.05% |  |
| N#Cc1ccccc1S(=O)(=O)N1CCCC(c2nc3c(nnn3Cc3cccc(Cl)c3)c(=O)[nH]2)C1 (stereo not given) | inactive: -11.3% |  |
| CN(C)c1ccc(C(CNC(=O)c2ccccc2F)N2CCc3ccccc32)cc1 (stereo not given) | inactive: 55.3% |  |
| Cc1csc2nc(CCNS(=O)(=O)c3ccccc3)cn12 | inactive: 6.78% |  |
| Cc1nn(-c2ccccc2)c2c1N(CCCC(=O)NCc1ccc(Cl)cc1)C(=O)CS2 | inactive: -1.24% |  |
| CN1CCN(C(=O)c2cnn(-c3cccc(Cl)c3)c2C2CCN(C(=O)OC(C)(C)C)CC2)CC1 | inactive: 5.47% |  |
| COc1cccc(CNC(=O)c2ccc3c(c2)N(Cc2ccc(C(F)(F)F)cc2)C(=O)c2ccccc2S3)c1OC | inactive: -23.6% |  |
| CCOc1ccccc1CNC(=O)CN(c1ccc(C)cc1)S(=O)(=O)N(C)C | inactive: 8.26% |  |
| Cc1c(NC(C)C)c(=O)n(-c2ccccc2)n1C | inactive: 3.5% |  |
| COc1cc(C(=O)Nc2cccc(OCc3cc(=O)n4c(C)csc4n3)c2)cc(OC)c1OC | inactive: 25.4% |  |

| Compound | activity change, negative = inhibition | Potency |
| --- | --- | --- |
| Cc1nn2c(=O)cc(COC(=O)c3ccccc3NC(=O)C(C)C)nc2s1 | inactive: -6.86% |  |
| COc1cccc(-n2cc(C(=O)Oc3ccc(F)cc3)c3ccccc3c2=O)c1 | inactive: -27% |  |
| Cc1ccc(S(=O)(=O)c2c(Nc3ccccc3)sc(C(=O)c3ccc4c(c3)OCO4)c2N)cc1 | inactive: -28.3% |  |
| Nc1nc(N)c(-c2ccccc2)s1 | inactive: 5.51% |  |
| Cc1c(Cl)ccc2sc(NC(=O)c3ccc(S(=O)(=O)N4CCCC4)cc3)nc12 | inactive: -3.3% |  |
| COc1ccc(-c2nc(SCC(=O)NCC3CCCO3)c(-c3ccc(Cl)cc3)[nH]2)cc1 (stereo not given) | inactive: -17.5% |  |
| CCCNC(=O)CCn1nc(-c2ccc(C)cc2)c2ccccc2c1=O | inactive: -6.52% |  |
| Cc1ccc2ncc(C(=O)Nc3cccc(C(F)(F)F)c3)c(=O)n2c1 | inactive: -2.63% |  |
| CCOc1ccc(CCNC(=O)c2cc3c(=O)n(C)c4ccccc4c3s2)cc1OCC | inactive: -17.5% |  |
| COc1ccccc1NC(=O)c1sc2cccc(Cl)c2c1Cl | inactive: 6.19% |  |
| CCCC12CN3CC(C)(CN(C1)C3c1ccc(CC)cc1)C2=O (stereo not given) | inactive: -8.33% |  |
| O=C(CC(c1cccs1)N1Cc2ccccc2C1=O)Nc1ccccc1 (stereo not given) | inactive: -22% |  |
| CCN1CCN(C(=O)Cn2ncc3c4ccccc4n(Cc4ccccc4F)c3c2=O)CC1 | inactive: -9.58% |  |
| O=c1cc2nc(-c3ccccc3)nc(SCc3cccc(Br)c3)n2[nH]1 | inactive: -19.3% |  |
| Cc1cccc(N2CCN(C(c3ccc(F)cc3)c3nnc(-c4ccccc4)o3)CC2)c1C (stereo not given) | inactive: -22.8% |  |
| COc1cccc(N2CCN(C(=O)c3cnc4c(C)cccn4c3=O)CC2)c1 | inactive: 6.86% |  |
| Cc1ccccc1-c1nc(NC(=O)CSc2ncnc3sc4c(c23)CCCC4)ns1 | inactive: -7.37% |  |
| Cc1ccc(Cl)cc1N1CCN(C(=O)C(C)n2ncn3cccc3c2=O)CC1 (stereo not given) | inactive: -20.2% |  |
| CCCCN(CCCC)C(=O)c1cc2c(=O)n3ccccc3nc2s1 | inactive: -12.6% |  |
| CCNC(=O)c1c(NC(=O)c2cc(=O)c3ccc(C)c(C)c3o2)sc2c1CCCC2 | inactive: 7.5% |  |
| Cc1nn(-c2ccccc2)c2c1cc1c(=O)[nH]c(=O)nc-1n2-c1cccc(C(F)(F)F)c1 | inactive: -8.31% |  |
| COc1ccc(Nc2ncnc3c2cnn3C)c(OC)c1 | inactive: -3.3% |  |
| Cc1ccc(-n2nc3c(=O)n(CCCC(=O)NCc4ccc(F)cc4)nc(C)c3c2C)cc1 | inactive: -23.2% |  |
| O=C(CN1CCN(Cc2ccc(F)cc2)C1=O)NCc1ccccc1 | inactive: -8.53% |  |

| Compound | activity change, negative = inhibition | Potency |
| --- | --- | --- |
| Cc1ccc2c(c1)-c1onc(C(=O)N3CCN(c4cccc(C)c4C)CC3)c1CO2 | inactive: -13.5% |  |
| C=Cc1ccc(Cn2c(C(=O)OC)cc3sc(C)cc32)cc1 | inactive: 15.6% |  |
| CC(=O)c1cccc(Nc2ncnc3c2cnn3-c2cccc(Cl)c2)c1 | inactive: 1.19% |  |
| COc1cccc(NC(=O)CC2Oc3ccccc3NC2=O)c1 (stereo not given) | inactive: 4.48% |  |
| COc1cccc(NC(=O)c2oc3ccc(S(=O)(=O)N4CCOCC4)cc3c2C)c1 | inactive: -26.7% |  |
| CC(C)OCCCNC(=O)CN1C(=O)CSc2ccc(S(=O)(=O)N3CCOCC3)cc21 | inactive: -2.42% |  |
| CC(=O)Nc1c(C(=O)Nc2ccccc2F)oc2ccccc12 | inactive: 32.5% |  |
| CCc1ccc(Nc2nc3c(S(=O)(=O)c4cccc(Cl)c4)nnn3c3ccsc23)cc1 | inactive: -16.6% |  |
| Nc1nc(F)nc2c1ncn2[C@@H]1O[C@H](COP(=O)(O)O)[C@@H](O)[C@H]1O | inactive: 26.7% |  |
| COc1ccc(-n2cc(C(=O)Nc3ccccc3C#N)c3ccccc3c2=O)cc1 | inactive: -10.2% |  |
| O=C(c1cccc([N+](=O)[O-])c1)N1CCN(CCc2ccncc2)CC1 | inactive: -0.355% |  |
| CCOc1ccccc1NC(=O)c1nn(-c2ccc(OC)cc2)c(=O)c2c1c1ccccc1n2C | inactive: -17.4% |  |
| COc1cccc(-n2cc(C(=O)Nc3ccccc3C(N)=O)c3ccccc3c2=O)c1 | inactive: -2.9% |  |
| Cc1nc(SCCOc2ccc(Cl)cc2)[nH]c(=O)c1Cc1ccccc1 | inactive: -14.1% |  |
| CC(C)(C)c1ccc(S(=O)(=O)N2CCC(c3ccncc3)CC2)cc1 |  | active: 15.8 µM |
| CCOc1ccc(NC(=O)Cn2c(=O)n(Cc3ccccc3)c(=O)c3c4c(sc32)CN(C(C)=O)CC4)cc1 | inactive: -8.3% |  |
| Cc1ccc(NC(=O)CN2C(=O)COc3ccc(S(=O)(=O)N4CCOCC4)cc32)c(Cl)c1 | inactive: 2.63% |  |
| COc1ccccc1NC(=O)C1=C(C)Nc2ncnn2C1c1sccc1C (stereo not given) | inactive: -8.37% |  |
| Cc1ccccc1CNC(=O)Cn1cc2c(n1)-c1c(oc(C(=O)N3CCCC3)c1C)CC2 | inactive: -28% |  |
| COc1ccc(OC)c(CNC(=O)CCC(=O)N2Cc3ccccc3Oc3ncccc32)c1 | inactive: 0.0037% |  |
| COc1ccc2nc(NC(=O)c3nc(SCc4cccc(C)c4)ncc3Cl)sc2c1 | inactive: -14.7% |  |
| COc1ccc(N2CC(NC(=O)C3CCCC3)CC2=O)cc1 (stereo not given) | inactive: -11.5% |  |
| COc1ccc(N(CC(=O)N2CCN(c3ccc(F)cc3)CC2)S(=O)(=O)c2c(C)nn(C)c2C)cc1 | inactive: -10.5% |  |

Reference: PubChem BioAssay AID1508623 (National Center for Advancing Translational Sciences (NCATS), 2021)
